The campaign covered roughly 410,000 compounds. About 1,200 (0.29%) were called active. Inconclusive results, whose numbers are uncertain, are shown with a selection of clear calls. The call rests on the fitted dose curve; in most records, active means well fitted activation curve with a large enough effect; inconclusive means small, poorly fitted or top-dose-only effect; inactive means flat fitted curve, though single readings scatter. Potencies of inconclusive entries are doubtful fits and often do not repeat.
Assay: qHTS of Nrf2 Activators; further: nearly all actives have a fitted effect of over 65% in size; on activation: % of control where 0% means no effect
Conditions: AREc32 ARE-luciferase reporter (MCF7-derived line), luminescence, 24 h; activation: at 46.1 µM (top of the series)
Procedure, shortened: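 For detection, Steady-Glo was added and plates sat 30 min at RT; before that, AREc32_Fluc cells grown overnight in OPTI-MEM/5% FBS had been treated with 23 nL compound for 24 hr at 37 deg C.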
Potency means the concentration at half of the fitted maximal effect; tags describe the fitted curve by direction and shape.

Potency, inconclusive:
Cc1cccc(NC(=O)C2SC(=Nc3c(C)cccc3C)C(C(=O)N3CCOCC3)=C2N)c1 (centres undefined) 15.8 µM [activator, single point]
O=C(COC(=O)/C=C/c1cccc(C(F)(F)F)c1)NC(=O)NCc1ccco1 15.8 µM [activator, single point]
O=c1c2ccccc2nc(/C=C/c2cccc([N+](=O)[O-])c2)n1CCO 1.41 µM [activator, partial curve, poor fit]
C[C@H](O)Cc1cn(-c2cc3cc(C#Cc4ccsc4)ccc3oc2=O)nn1 3.55 µM [activator, partial curve, poor fit]
Cc1nc(NC(=O)c2ccccc2)nc2cc3c(cc12)OCO3 12.6 µM [activator, partial curve]
O=C(/C=C/c1ccc(Cl)c([N+](=O)[O-])c1)Nc1ccc(N2CCCC2)cc1 15.8 µM [activator, partial curve, poor fit]
COc1ccc(NC(=O)Nc2cccs2)cc1Cl 15.8 µM [activator, partial curve, poor fit]
C#CCSc1nsc(SCC#C)c1C#N 15.8 µM [activator, single point]
O=C(CCN1C(=O)/C(=C/c2ccccc2Cl)SC1=S)Nc1ccccc1C(=O)O 15.8 µM [activator, single point]
CC1=CC(C)(C)Nc2ccc(OC(=O)CN3C(=O)c4cccc5cccc(c45)C3=O)cc21 22.4 µM [activator, single point]
Nc1nc(-c2ccccc2)cc(-c2ccccc2O)n1 2.51 µM [activator, full curve, poor fit]
Cn1c(/C(C#N)=C(\O)c2cccc(F)c2)nc2ccccc21 12.6 µM [activator, partial curve, poor fit]
Cc1cc(C)cc(NC(=O)/C=C/c2ccc([N+](=O)[O-])s2)c1 2.82 µM [activator, full curve, poor fit]
O=C(/C=C/c1ccco1)Nc1ccccc1N1CCCC1 0.562 µM [activator, full curve, poor fit]
O=C(CSc1nnc(SCc2ccccc2)s1)N/N=C/C=C/c1ccco1 11.2 µM [activator, single point]
O=C1c2ccccc2/C(=C\C#Cc2ccccn2)N1c1ccccc1 14.1 µM [activator, single point]
COc1cc(OC)cc(-c2nc3ccccc3c(=O)o2)c1 25.1 µM [activator, single point]
CCOC(=S)SCC(=O)Nc1ncc(C)s1 20 µM [activator, single point]
CN1CCN(C(c2ccc(Br)cc2)c2cc(Cl)c3cccnc3c2O)CC1 (centres undefined) 28.2 µM [activator, single point]
O=C(N/N=C/C(Cl)=C/c1ccc([N+](=O)[O-])cc1)C(=O)Nc1cccc(C(=O)O)c1 25.1 µM [activator, single point]
COC(=O)c1cc2c(=O)c3ccccc3oc2nc1/C=C/N(C)C 14.1 µM [activator, single point]
COc1ccc(N2COC3c4cccc5cccc(c45)C32)cc1 (centres undefined) 3.16 µM [activator, partial curve, poor fit]
CC(=O)Nc1cc2oc3ccccc3c2cc1[N+](=O)[O-] 2.24 µM [activator, full curve, poor fit]
COc1ccc(NC(=O)CCCN2C(=O)/C(=C\c3ccco3)SC2=S)cc1 15.8 µM [activator, single point]
O=C(Cn1cnc2scc(-c3cccc([N+](=O)[O-])c3)c2c1=O)NCc1ccco1 10 µM [activator, partial curve, poor fit]
O=c1[nH]c(SCc2ccccc2)nc2ccsc12 12.6 µM [activator, partial curve, poor fit]
CCOC(=S)SCC(=O)Nc1nc(C)c(C)s1 22.4 µM [activator, single point]
Cc1cc(C)nc(OC(=O)c2c(Cl)cc(Cl)cc2Cl)n1 12.6 µM [activator, partial curve]
COc1cc(/C=C/C(=O)/C=C(O)/C=C/c2ccc(O)c(OC)c2)ccc1O 22.4 µM [activator, single point]
CC(=O)COc1ccc2c(c1C)O/C(=C\c1ccco1)C2=O 1 µM [activator, full curve, poor fit]
O=C(Nc1csc(Cl)c1)c1ccccc1 14.1 µM [activator, partial curve, poor fit]
Oc1ccccc1CNc1cnc2ccccc2c1 15.8 µM [activator, single point]
O=C(Nc1cc([N+](=O)[O-])ccc1F)c1cccs1 14.1 µM [activator, single point]
O=C(NCc1ccco1)c1ccc(-c2csnn2)cc1 14.1 µM [activator, single point]
COCCNS(=O)(=O)c1cc(-c2nn3c(C)nnc3c3ccccc23)ccc1C 20 µM [activator, single point]
Cc1ccc(S(=O)(=O)CCC(=O)c2ccc(O)cc2O)cc1 3.55 µM [activator, single point]
Clc1ccc(N/N=C/c2cccs2)nn1 14.1 µM [activator, partial curve, poor fit]
CCn1cc(C=C2C(=O)c3ccccc3C2=O)c2ccccc21 20 µM [activator, single point]
O=C(Nc1ccccc1-c1ccccc1)c1ccc(Cl)c([N+](=O)[O-])c1 25.1 µM [activator, single point]
COc1cccc(/C=C/c2ccc3cccc(O)c3n2)c1OC 2.82 µM [activator, full curve, poor fit]
CC1CC(C)CN(c2oc(-c3ccco3)nc2C#N)C1 (centres undefined) 2.51 µM [activator, full curve, poor fit]

Potency, active:
CC(C)(C)/C(O)=C/c1nc2cc(Cl)ccc2oc1=O 10 µM
O=C(NC1CCCCC1)C(c1cccnc1)N(C(=O)CCl)c1cccc(Cl)c1 (centres undefined) 12.6 µM
COc1ccc(S(=O)(=O)c2cc3cc(C(C)(C)C)cc(O)c3oc2=O)cc1 15.8 µM
O=C1c2ccccc2-c2onc3ccc(Oc4ccccc4)c1c23 7.08 µM
Cc1cccc(/C=C/C(=O)c2cc(Br)ccc(=O)c2O)c1 22.4 µM
O=C(Nc1nc2c(Cl)cccc2s1)c1ccc([N+](=O)[O-])o1 5.01 µM
CC(=O)Oc1cccc(/C=C2\Sc3ccccc3C2=O)c1 14.1 µM
O=c1[nH]c(/C=C/c2ccccc2[N+](=O)[O-])nc2ccccc12 1.26 µM
COC(=O)c1sc(-c2cccs2)cc1N 8.91 µM
N/C(=N\OC(=O)c1ccc(Br)cc1)c1ccccc1 8.91 µM

activation, inactive:
CC(=O)Nc1ccc(SC[C@H](Cc2ccccc2)N2CC[C@@H](C(C)(C)C)CCC2=O)cc1 0.607%
COc1ccc(N2CC(NC(=O)c3ccc(S(=O)(=O)N4CCCC4)cc3)CC2=O)cc1 (centres undefined) -0.727%
O=C(CSc1nnc(C2CC2)n1-c1ccccc1)NCCc1ccccc1 -0.574%
CCOC(=O)c1c(C)oc2nc(C)nc(NCc3ccccc3Cl)c12 -0.595%
CC(C)c1[nH]nc2c1C(c1ccco1)C(C#N)=C(N)O2 (centres undefined) -0.262%
O=C(CN1C(=O)NC(Cc2c[nH]c3ccccc23)C1=O)Nc1cccc(S(=O)(=O)N2CCCCCC2)c1 (centres undefined) -0.845%
O=S(=O)(c1ccc2ccccc2c1)n1nc(-c2ccco2)nc1NCc1ccc(F)cc1 3.05%
CC(Sc1nnc(-c2ccc(Cl)cc2Cl)n1Cc1ccccc1)C(=O)Nc1nccs1 (centres undefined) 2.89%
Cc1cc2ccccc2n1CCNC(=O)COc1ccccc1 -0.706%
CCOc1ccccc1NC(=O)CN1C(=O)CC(c2ccco2)Sc2ccccc21 (centres undefined) 6.96%
CCOC(=O)C1CCN(Cc2ccc(OCc3ccccc3)cc2)CC1 4.32%
CCC(=O)c1ccccc1OCCCN1CCC(Cc2ccccc2)CC1 -0.438% [at 9.22 µM]
COc1cc(/C=N\NC(=O)c2ccc(-c3ccccc3)cc2)cc(OC)c1O 2.63%
Cc1cccc(C(O)c2cnc(C)n2Cc2ccccc2)c1 (centres undefined) -0.169%
CCOc1cccc2sc(N(Cc3cccnc3)C(C)=O)nc12 4.55%
COc1ccc(/C=C/c2nc(C#N)c(N3CCC(C(N)=O)CC3)o2)cc1OC 7.29%
CC(C)CN(c1ccccc1)S(=O)(=O)c1nnc(NC(=O)C2CCCCC2)s1 2.28%
O=C(CCSc1ccccc1)Nc1ccc(OCc2ccccc2)cc1 -0.405%
Cc1cc(C(=O)NNc2ccc(C)c(C)c2)no1 6.62%
Cc1cc(C(=O)COC(=O)c2ccc(NC(=O)CC#N)cc2)c(C)n1C1CC1 -0.387%
COC(=O)c1ccc(Cn2cnc3c(cnn3-c3ccc(F)cc3)c2=O)o1 0.323%
COc1ccc2[nH]c(C)cc(=O)c2c1 0.243%
Cc1ccc(C(=O)NCCc2csc(C)n2)cc1 -0.673%

Reference: PubChem BioAssay AID624171 (National Center for Advancing Translational Sciences (NCATS), 2012)
